The results in this text go back to PMC4336329 (PLoS ONE, 2015).

In all, about 310,000 compounds went through this assay and about 2,200 (0.71%) showed an effect of 50% or more. The effect is printed as a negative number. This is one part of the list.

The target of the test is human ether-à-go-go-related gene (hERG) potassium channel (human, UniProt Q12809). As to the kind of experiment: primary screen, population patch clamp on CHO cells stably expressing hERG.
human ether-à-go-go-related gene (hERG) potassium channel, sequence (Q12809 whole entry, looked up): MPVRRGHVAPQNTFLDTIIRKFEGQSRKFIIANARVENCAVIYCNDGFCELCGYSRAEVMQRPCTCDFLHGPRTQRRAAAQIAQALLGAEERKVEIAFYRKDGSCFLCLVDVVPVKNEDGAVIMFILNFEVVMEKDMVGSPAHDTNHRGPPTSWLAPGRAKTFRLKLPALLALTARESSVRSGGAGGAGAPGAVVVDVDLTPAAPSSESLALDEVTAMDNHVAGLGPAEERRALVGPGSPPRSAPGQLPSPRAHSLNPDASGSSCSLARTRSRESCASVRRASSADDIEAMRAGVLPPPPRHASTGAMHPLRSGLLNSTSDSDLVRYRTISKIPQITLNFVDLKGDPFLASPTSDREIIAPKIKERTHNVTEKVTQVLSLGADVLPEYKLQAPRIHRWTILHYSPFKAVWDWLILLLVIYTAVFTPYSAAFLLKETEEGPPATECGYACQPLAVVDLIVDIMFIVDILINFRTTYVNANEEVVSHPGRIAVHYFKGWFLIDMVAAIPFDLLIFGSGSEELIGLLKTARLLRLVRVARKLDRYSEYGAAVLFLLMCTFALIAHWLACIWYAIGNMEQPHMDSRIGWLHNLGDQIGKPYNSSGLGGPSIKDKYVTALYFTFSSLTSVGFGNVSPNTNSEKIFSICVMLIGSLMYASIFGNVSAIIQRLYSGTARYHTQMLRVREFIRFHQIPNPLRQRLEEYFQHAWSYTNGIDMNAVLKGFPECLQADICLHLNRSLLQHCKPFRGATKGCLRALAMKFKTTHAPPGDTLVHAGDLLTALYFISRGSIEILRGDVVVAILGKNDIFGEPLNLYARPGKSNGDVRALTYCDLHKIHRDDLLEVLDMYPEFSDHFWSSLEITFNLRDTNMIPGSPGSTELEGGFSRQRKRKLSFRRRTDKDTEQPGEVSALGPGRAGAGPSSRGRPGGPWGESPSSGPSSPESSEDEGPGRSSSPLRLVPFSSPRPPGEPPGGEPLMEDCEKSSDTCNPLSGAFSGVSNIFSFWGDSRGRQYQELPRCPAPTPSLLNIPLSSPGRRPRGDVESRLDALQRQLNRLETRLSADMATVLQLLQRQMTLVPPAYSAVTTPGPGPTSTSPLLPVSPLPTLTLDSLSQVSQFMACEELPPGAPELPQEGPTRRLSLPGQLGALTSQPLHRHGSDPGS
With `Cc1onc(-c2ccccc2)c1C(=O)N1CCC(CO)(Cc2ccccc2)CC1`, the “hERG current change (%, negative = inhibition) at 1uM” value worked out at 16.1%.

Consider `CCC1CCCCN1CCCNC(=O)c1csc2c1CCCCC2` (centres unmarked), for which the “hERG current change (%, negative = inhibition) at 1uM” value was -24.2%.

For the molecule `Cc1ccc(S(=O)(=O)N2CCN(CC(=O)Nc3ccnn3C3CCCC3)CC2)cc1`, the “hERG current change (%, negative = inhibition) at 1uM” value was 0.875%.

For the molecule `COc1ccc(C(=O)N/C(=C\c2ccccc2)C(=O)NCCCn2ccnc2)cc1`, the “hERG current change (%, negative = inhibition) at 1uM” value is recorded as -18.2%.

In the case of `CCOC(=O)c1sc2nc(CC(=O)OC)nc(N(C)CCc3ccccn3)c2c1C`, the “hERG current change (%, negative = inhibition) at 1uM” value is reported as 10.3%.

Regarding `NC(=O)c1cc([N+](=O)[O-])ccc1NCc1ccc(F)cc1`, the “hERG current change (%, negative = inhibition) at 1uM” value is 2.02%.

Consider `CCOc1ccc(Br)cc1C(=O)N/N=C/c1ccc([N+](=O)[O-])cc1`, for which the “hERG current change (%, negative = inhibition) at 1uM” value was found to be 15.2%.

Turning to `CC(=O)c1c(N2CCN(C(=O)C3CCCO3)CC2)nc(=S)n(-c2ccccc2)c1C` (centres unmarked), the “hERG current change (%, negative = inhibition) at 1uM” value came out at 6.82%.

In the case of `O=c1c2ccccc2nc(-c2ccco2)n1-c1ccccn1`, the “hERG current change (%, negative = inhibition) at 1uM” value is 7.94%.

Regarding `COC(=O)c1nn(-c2ccc(OC)cc2)ccc1=O`, the “hERG current change (%, negative = inhibition) at 1uM” value is given as 12.9%.

As to `C[N+](C)(C)CCOc1ccc([N+](=O)[O-])cc1.[Br-]`, the “hERG current change (%, negative = inhibition) at 1uM” value is recorded as -5.29%.

On to `O=C(NCC1CCCN1S(=O)(=O)c1cccs1)c1ccc(Cl)cc1` (centres unmarked), for which the “hERG current change (%, negative = inhibition) at 1uM” value is -14.4%.

With `CCCC(=O)N1CCN(c2nc3c(OC)ccc(Cl)c3s2)CC1`, the “hERG current change (%, negative = inhibition) at 1uM” value was 0.766%.

On to `Cc1cccc(C)c1NC(=O)NC1(C(=O)NCCN2CCOCC2)CCCCC1`, for which the “hERG current change (%, negative = inhibition) at 1uM” value is recorded as 10.3%.

For the molecule `COc1cc(C)c(NC(=O)COc2ccc3c(c2)CCC3)cc1OC`, the “hERG current change (%, negative = inhibition) at 1uM” value came out at 4.07%.

As to `CCOC(=O)c1sc(NC(=O)c2ccc(S(=O)(=O)N3CCCCC3)cc2)nc1-c1ccccc1`, the “hERG current change (%, negative = inhibition) at 1uM” value stood at 16.7%.

For `Cl.Cn1c(=O)c2c(nc(N3CCOCC3)n2CCCNC2=NCCC2)n(C)c1=O`, the “hERG current change (%, negative = inhibition) at 1uM” value was found to be 13%.

Consider `O=C(CNC(=O)Cn1ccc2ccccc2c1=O)NCCCN1CCCCCC1`, for which the “hERG current change (%, negative = inhibition) at 1uM” value is given as 4.85%.

For `O=C(NCc1ccc(OC(F)(F)F)cc1)C1CC2Cn3c(nc4ccccc43)C2N1c1ccccc1` (centres unmarked), the “hERG current change (%, negative = inhibition) at 1uM” value is given as -15.8%.

With `Clc1ccc(-n2cccc2/C=N/n2cnnc2)cc1`, the “hERG current change (%, negative = inhibition) at 1uM” value came out at 4.11%.

For `C/C(=N\OCc1ccc(C#N)cc1)c1ccccc1`, the “hERG current change (%, negative = inhibition) at 1uM” value stood at 19.1%.

As for `Nc1c(-c2ccccc2)c(CN2CCOCC2)nn1-c1ccc(C(=O)O)cc1.O=S(=O)(O)O`, the “hERG current change (%, negative = inhibition) at 1uM” value is recorded as 0.0577%.

Take `O=C(O)/C=C/c1nc(-c2ccccc2)n2ccccc12`: the “hERG current change (%, negative = inhibition) at 1uM” value was 3.67%.

With `CCCCN(C(=O)c1ccc(C)c(S(=O)(=O)N2CCOCC2)c1)c1c(N)n(CCCC)c(=O)[nH]c1=O`, the “hERG current change (%, negative = inhibition) at 1uM” value is on record as 5.43%.

In the case of `Cc1ccc(-c2nn3c(C)nnc3c3ccccc23)cc1S(=O)(=O)NCc1ccco1`, the “hERG current change (%, negative = inhibition) at 1uM” value is given as -16.2%.

On to `CC(Sc1nnc(NC2CCCCC2)s1)C(=O)N1CCOCC1` (centres unmarked), for which the “hERG current change (%, negative = inhibition) at 1uM” value came to 13.2%.

Turning to `CCOc1ccc(N(CC(=O)NCCSCc2ccccc2Cl)S(C)(=O)=O)cc1`, the “hERG current change (%, negative = inhibition) at 1uM” value worked out at 6.76%.

Regarding `O=S(=O)(c1cccc2cccnc12)N1CCN(Cc2ccccc2)CC1`, the “hERG current change (%, negative = inhibition) at 1uM” value is 1.09%.

In the case of `O=C(CCC(=O)c1cccs1)Nc1ccc(F)c(F)c1F`, the “hERG current change (%, negative = inhibition) at 1uM” value was 9.52%.

Regarding `O=C(NCCN1CCOCC1)C1CCN(S(=O)(=O)N2CCCCC2)CC1`, the “hERG current change (%, negative = inhibition) at 1uM” value turned out to be 10.7%.

Consider `COc1ccc(OC)c(C(O)c2coc3ccc(O)c(CN4CCOCC4)c23)c1` (centres unmarked), for which the “hERG current change (%, negative = inhibition) at 1uM” value was determined as 3.86%.

For `OC(CNCc1ccc(F)cc1)(c1ccc(F)cc1)c1ccc(F)cc1`, the “hERG current change (%, negative = inhibition) at 1uM” value was determined as 4.16%.

With `O=C(COc1ccc(Cl)cc1)NCc1ccncc1`, the “hERG current change (%, negative = inhibition) at 1uM” value is given as 2.38%.

As to `COCCN(CCOC)S(=O)(=O)c1ccc(C(=O)NC2CCN(Cc3ccccc3)CC2)cc1.Cl`, the “hERG current change (%, negative = inhibition) at 1uM” value is reported as -1.24%.

As for `O=C(CN1CCN(Cc2ccccc2F)C1=O)NCc1ccco1`, the “hERG current change (%, negative = inhibition) at 1uM” value stood at 15.2%.

For `C[N+](C)(C)CCCCCC[N+](C)(C)C.[Br-]`, the “hERG current change (%, negative = inhibition) at 1uM” value came out at 5.85%.

In the case of `CCOC(=O)c1ccc(-c2c(-c3ccccc3OC)oc3ccccc23)cc1F`, the “hERG current change (%, negative = inhibition) at 1uM” value is on record as 9.68%.

For `COc1ccc(OC)c(-c2cc(C(F)(F)F)c3c(n2)sc2c(O)cc(=O)[nH]c23)c1`, the “hERG current change (%, negative = inhibition) at 1uM” value stood at 15.2%.

Take `COc1cccc(Cn2c(=O)c3ccccc3n3nc(C)cc23)c1`: the “hERG current change (%, negative = inhibition) at 1uM” value is 4.91%.

Take `CCOc1ccc(-n2c(-c3ccccc3)nnc2-c2ccccc2)cc1`: the “hERG current change (%, negative = inhibition) at 1uM” value was found to be 2.39%.

For the molecule `CCc1nnc(SCC(=O)N2CCc3ccccc32)n1CC`, the “hERG current change (%, negative = inhibition) at 1uM” value was found to be 10.2%.

`O=C(O)Cc1ccc(NC(=O)c2cccc(NC(=O)c3ccco3)c2)cc1`: the “hERG current change (%, negative = inhibition) at 1uM” value turned out to be 12.7%.

For `Cc1ccc2c(c1)[C@H]1[C@H](CO2)[C@H](c2ccccc2)[C@]2(C)C(=O)NCC(=O)N12`, the “hERG current change (%, negative = inhibition) at 1uM” value stood at 14.4%.

As to `CCCCCSc1nc2c(c(=O)[nH]c(=O)n2C)n1CCc1ccccc1`, the “hERG current change (%, negative = inhibition) at 1uM” value turned out to be 6.05%.

As to `COc1ccc(S(=O)(=O)N2CCN(C(=O)CCOc3ccccc3)CC2)cc1OC`, the “hERG current change (%, negative = inhibition) at 1uM” value worked out at 3.11%.

For `COc1cc(-c2nc(N)n[nH]2)cc(OC)c1OC`, the “hERG current change (%, negative = inhibition) at 1uM” value was 14.4%.

Regarding `O=C(NCc1ccccc1)N1CCN(CCO)CC1`, the “hERG current change (%, negative = inhibition) at 1uM” value turned out to be 12.4%.

Regarding `OCCc1ccccc1`, the “hERG current change (%, negative = inhibition) at 1uM” value is listed as 15.8%.

Turning to `O=c1cc(-c2ccccc2)nc(Cc2c(Cl)cccc2Cl)[nH]1`, the “hERG current change (%, negative = inhibition) at 1uM” value is on record as 5.38%.

For `C/C(=N\NC(=O)c1cccc(S(=O)(=O)N2CCOCC2)c1)c1ccc(C#N)cc1`, the “hERG current change (%, negative = inhibition) at 1uM” value was determined as 4.62%.

Regarding `C=CCOc1ccc(C(=O)Nc2ccccc2C(=O)NCc2cccnc2)cc1`, the “hERG current change (%, negative = inhibition) at 1uM” value was 11.4%.

Regarding `CCCCn1c(SCc2ccc(Cl)cc2)nc2c1c(=O)[nH]c(=O)n2C`, the “hERG current change (%, negative = inhibition) at 1uM” value is -15.4%.

For the molecule `Cc1cc(=O)oc2c(C)c(OCC(=O)N3CCC(C(=O)O)CC3)ccc12`, the “hERG current change (%, negative = inhibition) at 1uM” value is listed as 5.63%.

Take `COc1ccc(-c2c(C#N)c(N)nc3c2c(=O)n(C)c(=O)n3C)cc1Cl`: the “hERG current change (%, negative = inhibition) at 1uM” value was -3.66%.

Turning to `S=C1NC[C@H](CC2CCCCC2)N1CCCCC1CCCCC1`, the “hERG current change (%, negative = inhibition) at 1uM” value is 13%.

Consider `CC(CCc1ccccc1)NC(=O)CN1C(=O)NC2(CCCCC2C)C1=O` (centres unmarked), for which the “hERG current change (%, negative = inhibition) at 1uM” value is on record as 11.3%.
